The labels stand for the following.
T1: RBFOX1 RRM (Homo sapiens, UniProt Q9NWB1 109-208)
T1 sequence: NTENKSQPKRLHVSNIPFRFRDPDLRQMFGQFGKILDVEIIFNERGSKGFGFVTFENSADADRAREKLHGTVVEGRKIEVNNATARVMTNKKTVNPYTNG

B1: GUCUCUA (DNA:RNA)
RNA: GGGAGACCGGAAUUCAGAUUGUCCGUCUCUAUUAAAUCCCGUCGUAGCCACCA
DNA 1: CAATCTGAATTCCGGTCTCCC
DNA 2: TGGTGGCTACGACGGGATT
B2: AUUCUGG (DNA:RNA)
RNA: B1 RNA with G25A, C27U, U28C, C29U, U30G, A31G
DNA 1: CAATCTGAATTCCGGTCTCCC
DNA 2: TGGTGGCTACGACGGGATT
B3: CCUCAGU (DNA:RNA)
RNA: GGGAGACCGGAAUUCAGAUUGUCCCCUCAGUUUAAAUCCCGUCGUAGCCACCA
DNA 1: CAATCTGAATTCCGGTCTCCC
DNA 2: TGGTGGCTACGACGGGATT
B4: AAUACAA (DNA:RNA)
RNA: B1 RNA with G25A, U26A, C27U, U28A, U30A
DNA 1: CAATCTGAATTCCGGTCTCCC
DNA 2: TGGTGGCTACGACGGGATT
B5: GUUUUCA (DNA:RNA)
RNA: B1 RNA with C27U, C29U, U30C
DNA 1: CAATCTGAATTCCGGTCTCCC
DNA 2: TGGTGGCTACGACGGGATT
B6: UAUCCUA (DNA:RNA)
RNA: B1 RNA with G25U, U26A, C27U, U28C
DNA 1: CAATCTGAATTCCGGTCTCCC
DNA 2: TGGTGGCTACGACGGGATT
B7: GAUACCC (DNA:RNA)
RNA: B1 RNA with U26A, C27U, U28A, U30C, A31C
DNA 1: CAATCTGAATTCCGGTCTCCC
DNA 2: TGGTGGCTACGACGGGATT
B8: UCGGCCC (DNA:RNA)
RNA: B3 RNA with C25U, U27G, C28G, A29C, G30C, U31C
DNA 1: CAATCTGAATTCCGGTCTCCC
DNA 2: TGGTGGCTACGACGGGATT
B9: CCUUGAU (DNA:RNA)
RNA: B3 RNA with C28U, A29G, G30A
DNA 1: CAATCTGAATTCCGGTCTCCC
DNA 2: TGGTGGCTACGACGGGATT
B10: AAGACAC (DNA:RNA)
RNA: B1 RNA with G25A, U26A, C27G, U28A, U30A, A31C
DNA 1: CAATCTGAATTCCGGTCTCCC
DNA 2: TGGTGGCTACGACGGGATT
B11: CUUAGUG (DNA:RNA)
RNA: B3 RNA with C26U, C28A, A29G, G30U, U31G
DNA 1: CAATCTGAATTCCGGTCTCCC
DNA 2: TGGTGGCTACGACGGGATT
B12: ACCAUCA (DNA:RNA)
RNA: B1 RNA with G25A, U26C, U28A, C29U, U30C
DNA 1: CAATCTGAATTCCGGTCTCCC
DNA 2: TGGTGGCTACGACGGGATT
B13: GUCAUCC (DNA:RNA)
RNA: B1 RNA with U28A, C29U, U30C, A31C
DNA 1: CAATCTGAATTCCGGTCTCCC
DNA 2: TGGTGGCTACGACGGGATT
B14: AACGGUU (DNA:RNA)
RNA: B1 RNA with G25A, U26A, U28G, C29G, A31U
DNA 1: CAATCTGAATTCCGGTCTCCC
DNA 2: TGGTGGCTACGACGGGATT
B15: UGGCGCG (DNA:RNA)
RNA: B3 RNA with C25U, C26G, U27G, A29G, G30C, U31G
DNA 1: CAATCTGAATTCCGGTCTCCC
DNA 2: TGGTGGCTACGACGGGATT
B16: CGCACAU (DNA:RNA)
RNA: B3 RNA with C26G, U27C, C28A, A29C, G30A
DNA 1: CAATCTGAATTCCGGTCTCCC
DNA 2: TGGTGGCTACGACGGGATT
B17: GCCCGAC (DNA:RNA)
RNA: B3 RNA with C25G, U27C, A29G, G30A, U31C
DNA 1: CAATCTGAATTCCGGTCTCCC
DNA 2: TGGTGGCTACGACGGGATT
B18: AGCCCUG (DNA:RNA)
RNA: B1 RNA with G25A, U26G, U28C, A31G
DNA 1: CAATCTGAATTCCGGTCTCCC
DNA 2: TGGTGGCTACGACGGGATT
B19: CAUAUAA (DNA:RNA)
RNA: B3 RNA with C26A, C28A, A29U, G30A, U31A
DNA 1: CAATCTGAATTCCGGTCTCCC
DNA 2: TGGTGGCTACGACGGGATT
B20: GCUGAAC (DNA:RNA)
RNA: B3 RNA with C25G, C28G, G30A, U31C
DNA 1: CAATCTGAATTCCGGTCTCCC
DNA 2: TGGTGGCTACGACGGGATT
B21: GCCUCAG (DNA:RNA)
RNA: B1 RNA with U26C, U30A, A31G
DNA 1: CAATCTGAATTCCGGTCTCCC
DNA 2: TGGTGGCTACGACGGGATT
B22: UCCUCUG (DNA:RNA)
RNA: B1 RNA with G25U, U26C, A31G
DNA 1: CAATCTGAATTCCGGTCTCCC
DNA 2: TGGTGGCTACGACGGGATT
B23: AACAGCA (DNA:RNA)
RNA: B1 RNA with G25A, U26A, U28A, C29G, U30C
DNA 1: CAATCTGAATTCCGGTCTCCC
DNA 2: TGGTGGCTACGACGGGATT
B24: CCGUGAU (DNA:RNA)
RNA: B3 RNA with U27G, C28U, A29G, G30A
DNA 1: CAATCTGAATTCCGGTCTCCC
DNA 2: TGGTGGCTACGACGGGATT
B25: CUCUAAU (DNA:RNA)
RNA: B3 RNA with C26U, U27C, C28U, G30A
DNA 1: CAATCTGAATTCCGGTCTCCC
DNA 2: TGGTGGCTACGACGGGATT
B26: AGGGAGU (DNA:RNA)
RNA: B3 RNA with C25A, C26G, U27G, C28G
DNA 1: CAATCTGAATTCCGGTCTCCC
DNA 2: TGGTGGCTACGACGGGATT
B27: CUAGAGU (DNA:RNA)
RNA: B3 RNA with C26U, U27A, C28G
DNA 1: CAATCTGAATTCCGGTCTCCC
DNA 2: TGGTGGCTACGACGGGATT
B28: AACAUUU (DNA:RNA)
RNA: B1 RNA with G25A, U26A, U28A, C29U, A31U
DNA 1: CAATCTGAATTCCGGTCTCCC
DNA 2: TGGTGGCTACGACGGGATT
B29: GCAUGAU (DNA:RNA)
RNA: B3 RNA with C25G, U27A, C28U, A29G, G30A
DNA 1: CAATCTGAATTCCGGTCTCCC
DNA 2: TGGTGGCTACGACGGGATT
B30: GCGAAAA (DNA:RNA)
RNA: B3 RNA with C25G, U27G, C28A, G30A, U31A
DNA 1: CAATCTGAATTCCGGTCTCCC
DNA 2: TGGTGGCTACGACGGGATT
B31: GGCGUCA (DNA:RNA)
RNA: B1 RNA with U26G, U28G, C29U, U30C
DNA 1: CAATCTGAATTCCGGTCTCCC
DNA 2: TGGTGGCTACGACGGGATT

Changes are numbered by the printed parent chain; changes in the protein carry UniProt numbers. Some of the results follow.

This is an account of results in article PMC9911399, “Two distinct binding modes provide the RNA-binding protein RbFox with extraordinary sequence specificity”.

This test deals with T1, RBFOX1 RRM. The test can be described thus: EMSA; HiTS-Eq, 1 nM pool, 10 min; buffer printed only for the single-RNA assays: 10 mM Tris pH 7.5, 150 mM NaCl, 3.4 mM EDTA, 0.001% NP-40, 30 C. Particulars: tags: His6 N-terminal (pET28a); label: 5' 32P. In short, it runs like this:
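These values rest on relative association constants, computed from read-count changes of each RNA species versus the control reaction and normalised to the cognate motif. Reads came from free RNA recovered by 8% native PAGE after purified RbFox RRM (wild type or mutant) at increasing concentrations was equilibrated for 10 min in 50 µL with 1 nM of a 5′-radiolabelled pool with 7 randomized nucleotides and DNA-annealed flanks.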
For orientation: Mobility shift assays separate free from complexed probe on a gel.
With B1, the binding signal was 0.00775 KA relative to UGCAUGU.
As for B2, the figure is 0.0124 KA relative to UGCAUGU; as for B3, 0.0083 KA relative to UGCAUGU.
In the case of B4, the binding signal was 0.00311 KA relative to UGCAUGU.
The value for B5 was 0.0141 KA relative to UGCAUGU.
As for B6, the figure is 0.00279 KA relative to UGCAUGU.
As for B7, the figure is 0.0101 KA relative to UGCAUGU.
B8: the binding signal is 0.0157 KA relative to UGCAUGU.
As for B9, the figure is 0.00825 KA relative to UGCAUGU.
Take B10: the binding signal was 0.000216 KA relative to UGCAUGU.
As for B11, the figure is 0.0161 KA relative to UGCAUGU; as for B12, 0.00181 KA relative to UGCAUGU.
The value for B13 was 0.00874 KA relative to UGCAUGU; that for B14 was 0.00768 KA relative to UGCAUGU; that for B15 was 0.0253 KA relative to UGCAUGU.
As for B16, the figure is 0.00748 KA relative to UGCAUGU.
Turning to B17, the binding signal is 0.0146 KA relative to UGCAUGU.
The value for B18 was 0.0112 KA relative to UGCAUGU.
Take B19: the binding signal was 0.00105 KA relative to UGCAUGU.
The value for B20 was 0.0215 KA relative to UGCAUGU.
As for B21, the figure is 0.0106 KA relative to UGCAUGU; as for B22, 0.0167 KA relative to UGCAUGU; as for B23, 0.00394 KA relative to UGCAUGU.
B24: the binding signal is 0.0115 KA relative to UGCAUGU.
The value for B25 was 0.00215 KA relative to UGCAUGU; that for B26 was 0.0181 KA relative to UGCAUGU.
For the molecule B27, the binding signal is 0.0088 KA relative to UGCAUGU.
Take B28: the binding signal is 0.00104 KA relative to UGCAUGU.
On to B29, for which the binding signal is 0.626 KA relative to UGCAUGU.
With B30, the binding signal was 0.00747 KA relative to UGCAUGU.
Take B31: the binding signal is 0.0121 KA relative to UGCAUGU.
